This passage reports self-cleavage results from the RNAGym collection of RNA variant scans (doi:10.7554/elife.90254).

Read counts are not given, so values of variants with three or more changes are uncertain.

First the molecules themselves.
B1: OR4K15 (parent)
chain: GUUAACGGUCAUAGGCCAUGGAAACUAGGAGCACCAUUUCGCUGCCAGUGAAGAAAUGAACAAAGAAAAUCUGGGCCAGGCAGGCAUCAAAAGAAAUAGUCUUGCGCUCAACCAGAAAGUCUGUAAUCAUUUUAAGGGUA

The data set covers variants of B1. The data set is described as follows: self-cleavage, relative activity (ratio to wild type); higher = more cleavage; in vitro, sequencing; the parent is a self-cleaving ribozyme.
U38C U49A A55G A60G A94U A96U A110C U124C: the self-cleavage came out at 0.09. In the case of U39C A52G U131C it was 1.58; in that of G41A A118G U127C, 0.65. In the case of U39C C45U A47U A62G A68G U122C it was 0.76; in that of U39C G44A A63G, 1.45.

On to U38C U43C A82G A95G, for which the self-cleavage is 0.37.

On to U39C U49A A59G A91G U108C A129U, for which the self-cleavage stood at 0.01. Take C42A A47G A89U: the self-cleavage was 0.91.

As for U43A A66G U130C, the self-cleavage worked out at 1.7. Regarding U38C A62G U72A, the self-cleavage was 0.13. The result for U39C A51G A54G A90G A92G U130A reads 0.44; that for U39A A59G A90G A94G A95C, 0.36; that for U39C U108A U124C A129G, 0.

On to U38C G44A A47G A62C A95G U102C, for which the self-cleavage was 1.65.

For the variant U39C A64G A126G, the self-cleavage worked out at 0.87.

Consider U38C A54G A68G A96G U103A U108A, for which the self-cleavage is 0.04. As to U38C A56G A95C A96G U122A A135C, the self-cleavage came to 0.91. As for C42U A63G A95G A118G, the self-cleavage is 2.55.

As for U39C A69G U72A, the self-cleavage is 0.64. On to U39C A62G A68G A116G, for which the self-cleavage is 1.13. In the case of U38C A63G U108C it was 0.01; in that of U38C U43A A67G U120A, 2.35; in that of U43A A56G A60G U87C, 0.54. The result for U39C U70C U122C reads 0.13; that for U38C A69U U139C, 1.58; that for U38C A86G A96U, 2.04. For G41A A56G A68G G75A C76U A91C, the self-cleavage amounted to 0.13. For U39C A47G A55G G93A A116G, the self-cleavage was determined as 0.93. The result for U39C A47U C77U U133A reads 1.42; that for U39G A89G A90G U108C, 0.05; that for U38C A96G G115A, 0.24. With U38C U43A U103C, the self-cleavage is 1.15.

With U38G A47G C76U A89G, the self-cleavage amounted to 0.07. In the case of U38C U102C U108C it was 0.01. Take U39C C76U A90G: the self-cleavage is 0.1.

Turning to C42A A59U A111G, the self-cleavage amounted to 0.02.

Turning to U39C A67G A96G, the self-cleavage was 1.27. In the case of U43A A56G A66G G75A U108C A114U, the self-cleavage stood at 0.02. In the case of U39A U108G A110C U131C A135G it was 0.1. The result for U38C A67G U130A reads 1.63; that for C40U U49C U108C, 0. The result for U39C A52G A60G A69G U139A reads 1.35; that for U39C A69G A116U A118G, 0.21; that for U39C A86C A126G, 1.35.

For the variant U39C A64U A90U, the self-cleavage came to 1.46.

For U43A A60G A89U, the self-cleavage was 1.48.

As to U39C A52U A63G C81U, the self-cleavage was 0.42.

On to U39A C107U U124A U132C, for which the self-cleavage was 0. In the case of U38C U72A A86G A116G, the self-cleavage turned out to be 0.06. In the case of C42U U70C A91U U108C it was 0.01; in that of U43A A54U U108C, 0.03; in that of G41A A55G A90G A94G, 1.96. Consider U39C U108C A111G A118G, for which the self-cleavage was found to be 0.01. In the case of U38C A67G A118G it was 0.59; in that of U39C A96G A135G, 1.19; in that of U39C U43C A92G A94U, 0.95. The result for U39C G53U U103C reads 0.31. In the case of U38C U43C A51G A78G A140G it was 0.15; in that of C42U A59G A95G, 1.28.

In the case of U39C A54G A92G, the self-cleavage was 2.49. As for U39C A60U A67G A92G A95G G99A A116G, the self-cleavage came to 0.11.

In the case of U38G A56G U108C, the self-cleavage worked out at 0.02. Take U39A A54G U120C: the self-cleavage amounted to 1.18.

U38C A95G U102C A134G: the self-cleavage turned out to be 1.61. For the variant U39C U102A A129G, the self-cleavage came to 0.66.

Consider U38C A111G U122C G137A, for which the self-cleavage was determined as 0.01. In the case of C40U A56G A69G it was 0.65; in that of U38C A92U U133C, 1.83.

As to G41A A64G A98G, the self-cleavage was found to be 0.34. As to U39A A91G U100C, the self-cleavage came out at 2.55. For U43A A60G A62G A64G U72A, the self-cleavage amounted to 0.16. U39A A78U A117G: the self-cleavage worked out at 0.15. In the case of U39C A63G A126G it was 1.18.

On to C42A A89G C128A A134G U139C, for which the self-cleavage came out at 0.27. In the case of U39A A92G A114U C128A it was 0.05; in that of U39C G53U A56G A60G U103C A118C, 0.3; in that of U38G A78G U127C, 0.

Regarding G41A A47G A94G U108C, the self-cleavage stood at 0.01. Regarding U39A A63G A90U, the self-cleavage turned out to be 2.38. U39A U72C A94U A114G A116C: the self-cleavage worked out at 0.85. For U38C A66G A94G U103C U131C, the self-cleavage is 0.83.

In the case of U39C A68G A89G, the self-cleavage was found to be 1.51. Regarding U39A A92U U103A A134U, the self-cleavage worked out at 0.64. The result for C42A A67G U131C reads 1.53; that for U38C A68G A118C A135G G138U, 1.1; that for C42A U87C A96G C112U, 0.01. Consider C42U A64G A78U, for which the self-cleavage amounted to 0.36. In the case of U39C A51G A63U G123A it was 1.51; in that of U39A A94G U122C, 0.78. The result for U38C A68G G83A reads 1.63. For G41A A52G A60G A117G, the self-cleavage was 1. For U39C A52G U127C, the self-cleavage is 0.84.

As to C40U U43G A66G A89G A96G A129U, the self-cleavage is 0.57. U39C U132G A135G: the self-cleavage was 1.01. Turning to U38C U57C U87A, the self-cleavage came out at 0.44. On to U43A A54U U72C U102C U139C, for which the self-cleavage is 0.29.

For the variant U39C U87A A129U, the self-cleavage is 0.36. As for U38C G48A U57C A63G U72C U130G, the self-cleavage is 0.06.

Turning to U39A U49C U102C A118G, the self-cleavage amounted to 1.55. For the variant U39C U43C A59G A91G U102C A114U, the self-cleavage stood at 0.11. With U38C A92G A114G, the self-cleavage turned out to be 0.62.

For U38C A95G A96G, the self-cleavage was found to be 1.72. In the case of C40U A54G A60G A69G U72C A134G it was 0.09; in that of U39C U122C A126G, 1.14; in that of U39C A47G A51G A52G A66U U127C, 1.62. The result for G41A U72A A118U reads 0.05; that for U39C U72A U132C, 0.13. As for C40A U57A U70C, the self-cleavage was 1.48.

In the case of U38C A52G U102C U132G, the self-cleavage came to 2.26.

In the case of U39A A129U U132A, the self-cleavage was determined as 1.26. In the case of U39C A55G G75U, the self-cleavage is 0.24. The result for U38C A62G A78G reads 0.25; that for U39C A64G A94G, 1.39.

As to U39C A66G U70C, the self-cleavage is 0.6. For G41A A59G A60G A116G, the self-cleavage is 0.61. In the case of U39A U49A A54G A59U U87C A92G G106A it was 0.01; in that of U39A A67G G104U, 0.01; in that of C42G A63G A78U U139C, 0.28. With U43A A63G C76U A90G, the self-cleavage came out at 0.25. In the case of U39C U43A A47G A96G it was 1.55. In the case of U39C U43A A64G A92G it was 2.55; in that of U39A C42U A90U A98G C105A A116U, 0.01; in that of C42U A90G U103C U120C, 0.13. In the case of U39A A47G A55G A96G A118G it was 0.62; in that of U39C A96G A117C, 0.65. U38C A69G U124G U139C: the self-cleavage was 0.72. Consider U39A U100C U127C, for which the self-cleavage worked out at 1.8. The result for U39C A56G A135U reads 1.09; that for C42U G74A A95G A118G, 0.16. Turning to U39C A60G A94G, the self-cleavage came out at 2.31. In the case of U43A A62G U122A it was 1.04; in that of U38C A78U A110G, 0.1. Regarding G41C A64C A95G A116U, the self-cleavage came to 0.54. Consider U39C A51G A82U, for which the self-cleavage stood at 0.24. In the case of U43A A69G U108A it was 0.04; in that of U39A A52G A56G, 0.71; in that of U39C C105U U124C, 0.11. In the case of U38C U72A A110G A117G U127A it was 0.03. As for U38C U57C U122A, the self-cleavage is 1.42.

Consider U39C A52G A92G, for which the self-cleavage was 0.93. Take U38C A62G G93U: the self-cleavage was 1.53.

Turning to G41A A64G A118G, the self-cleavage was found to be 0.39. In the case of U43A A54G U127C it was 0.93.

As for U43A A67G A95G A114C, the self-cleavage came out at 0.07. The result for U43A A55G A68G reads 1.54. In the case of U39C A47C A59U A66U U122C it was 0.85; in that of C42U A64G A78G U124A, 0.07; in that of U39C A78U A94G A117G, 0.38. In the case of U39A A64U A96G U130G it was 1.64; in that of U38C A54G A59G A67G A69G A117G U122A, 0.51. Turning to U43A A64G U100C A114G, the self-cleavage was found to be 0.94. Consider U38C A60G A126U, for which the self-cleavage was found to be 0.61. U38C A54G U57C A114G: the self-cleavage was 0.13. U39C U49C A82G U108C A116G A126G: the self-cleavage came out at 0. The result for C40U U87C C107U reads 0; that for U39A A69U A110U, 1.38; that for U38C A89G G104U A111G, 0. In the case of G41A C105U U131A it was 0.23; in that of U38C G65A A95G, 1.99. As to U39A U127C U139A, the self-cleavage turned out to be 1.23. With U38C A54G A114C U120C U139A A140G, the self-cleavage is 0.01.

As to U39C U87A U127C, the self-cleavage came out at 1.57. In the case of U39C U49A A114U it was 0.03.

For U38C A78G C113A A126G, the self-cleavage came to 0.

On to U43A A55G U122C, for which the self-cleavage worked out at 1.04.

U38C A67G U72C A78G A82G U108C: the self-cleavage was found to be 0.02.

In the case of C42A A52G A117G, the self-cleavage was found to be 2.01.
